The text below walks through data of ChEMBL document CHEMBL4888484, “Replenishing the malaria drug discovery pipeline: Screening and hit evaluation of the MMV Hit Generation Library 1 (HGL1) against asexual blood stage Plasmodium falciparum ,using a nano luciferase reporter read-out” (2022).

The whole screen tested about 150,000 compounds, of which about 540 (0.36%) showed an effect of 50% or more. This is one part of the list.

In the test the test system is Plasmodium falciparum. The test is described as follows: Primary screen in NF54 nanoGlo assay, in single point, at 2uM, 72h; a lower Z score goes with more inhibition. The format is functional, Erythrocyte. To be noted: timepoint 72 hour.
Consider `Cc1ccoc1C(=O)N1CC[C@@]2(CCCN(CCc3ccccc3)C2)C1`, for which the “% Inhibition” value was -6% and the Z score was 1.1.
Regarding `CC[C@H]1COCCN1C(=O)CCCN1CCCC1=O`, the “% Inhibition” value was found to be 5% and the Z score is recorded as -0.7.
As to `O=C(NCc1nnc2cc(C(F)(F)F)ccn12)c1cnc[nH]1`, the “% Inhibition” value is on record as -26% and the Z score was 5.24.
Consider `CC(C)OC(=O)N1CCC2(CC1)CC(=O)N(C/C=C/c1ccccc1)C2`, for which the “% Inhibition” value is reported as -6% and the Z score is 0.68.
On to `COc1cccc(NC(=O)Nc2ccc3c(c2)NC(=O)C(C)(C)O3)c1`, for which the “% Inhibition” value is recorded as 38% and the Z score is on record as -5.11.
For the compound `c1ccc(CN2CCN(c3ncnc4c3nc3n4CCCCC3)CC2)cc1`, the “% Inhibition” value was -13% and the Z score is reported as 1.58.
As for `Cc1nc2cc(C(=O)N3CCN(C)C(=O)C3)ccc2s1`, the “% Inhibition” value was -13% and the Z score was determined as 1.23.
Consider `CCCn1nc(COc2cccc(F)c2)nc1C1CCN(C(C)=O)CC1`, for which the “% Inhibition” value worked out at 4% and the Z score was -0.65.
The like results for `COCCCN(Cc1ccc2nsnc2c1)C1CCN(C)CC1` were, in that order, 3% and -0.64.
Take `COc1ccc(-c2nc3c(cnn3-c3ccccc3)c(N)c2S(C)(=O)=O)cc1`: the “% Inhibition” value is -6% and the Z score came out at 0.74.
For the compound `CC(=O)c1cccc(S(=O)(=O)N2CCCC[C@H]2c2nc(-c3ccccc3)c[nH]2)c1`, the “% Inhibition” value was determined as 5% and the Z score is given as -0.62.
For `CCN1CCN(C[C@@H]2CN(c3nccs3)C[C@@H]2CO)CC1`, the “% Inhibition” value is given as -12% and the Z score is reported as 1.56.
Turning to `O=C(NC1CCCCCCC1)c1cc2n(n1)CCCN(Cc1ccc(Cl)cc1)C2=O`, the “% Inhibition” value is given as 4% and the Z score was -0.7.
The like results for `CCc1nc(C)sc1CNC(=O)c1cn(C)c(=O)[nH]c1=O` were, in that order, 2% and -0.31.
`Cc1ccc(-n2ncc3c2CC(C)(C)C[C@@H]3NC(=O)C2CCOCC2)cc1`: the “% Inhibition” value is recorded as -5% and the Z score is on record as 0.57.
The like results for `O=C([C@H]1CC(=O)N(c2ccc(F)c(Cl)c2)C1)N1CCN(C(c2ccccc2)c2ccccc2)CC1` were, in that order, 37% and -4.16.
With `CCC1(CC)NC(=O)N(CC2(COc3cccc(COC)c3)CCC2)C1=O`, the “% Inhibition” value is -7% and the Z score is 0.74.
Consider `COc1ccccc1N1CCN(C(=O)c2cn3c(n2)CC[C@H](c2ccccc2C)C3)CC1`, for which the “% Inhibition” value is -15% and the Z score is reported as 1.44.
The like results for `C[C@@H](CCc1ccco1)Nc1cncc(-n2cccn2)n1` were, in that order, 6% and -0.5.
In the case of `NC(=O)Nc1ccc(Br)c(Cl)c1Cl`, the “% Inhibition” value was determined as 0% and the Z score is reported as 0.02.
With `CCOC(=O)c1nc(N2CCCC2)c2c(C)c(C)n(-c3ccccc3)c2n1`, the “% Inhibition” value is listed as -2% and the Z score came to 0.28.
The like results for `Cc1nc(C(C)C)sc1CNC(=O)CCn1nnnc1C` were, in that order, -8% and 1.25.
The like results for `Cc1c(C(=O)N2CCn3ccnc3[C@@H]2C(C)C)c(C)n(C)c1-c1ccccc1` were, in that order, -4% and 0.47.
As to `CCN(CC(N)=O)[C@@H](Cc1ccc(C)cc1)C1CC1`, the “% Inhibition” value was 5% and the Z score is listed as -0.54.
For `CS(=O)(=O)N(C(=O)NC(=O)Nc1ccc(Cl)cc1Cl)C1CCCCC1`, the “% Inhibition” value is -10% and the Z score came out at 2.
`CCCc1ccc(S(=O)(=O)N2CCC3(CC2)Nc2ccc(C)c(C)c2-n2cccc23)cc1`: the “% Inhibition” value is given as -4% and the Z score is listed as 0.58.
As for `O=C(NC1C2CC1N(CCOc1cccc(F)c1)C2)c1cc2ncccn2n1` (stereo unspecified), the “% Inhibition” value is recorded as 1% and the Z score is listed as -0.15.
Consider `COCCOc1ccc(NS(=O)(=O)Cc2ccc3ccccc3c2)cn1`, for which the “% Inhibition” value is listed as -6% and the Z score is on record as 0.81.
With `Cc1cc(C)n(CC2(CNC3CCN(c4ccc(F)cc4C)CC3)CC2)n1`, the “% Inhibition” value is -8% and the Z score turned out to be 1.54.
In the case of `CCCCc1nc(CN[C@@H](C)c2nncn2C)c[nH]1`, the “% Inhibition” value amounted to 0% and the Z score is recorded as -0.02.
For `O=C(NCc1nc(C2CC2)no1)c1cccc(S(=O)(=O)NC2CCC2)c1`, the “% Inhibition” value worked out at 12% and the Z score is on record as -1.49.
On to `COCC[C@H](C)N1CC(Oc2ccccc2)C1`, for which the “% Inhibition” value was 2% and the Z score is -0.21.
Regarding `CCN(CC)CC[C@H]1CN(C(=O)Cc2ccc(OC)cc2)CC[C@H]1CC(=O)O`, the “% Inhibition” value is 34% and the Z score is reported as -3.8.
Consider `C[C@@H](c1ccncc1)N(C)Cc1cccc2nonc12`, for which the “% Inhibition” value was -12% and the Z score was found to be 2.12.
The like results for `COCC1(NC(=O)c2ccc(C(C)C)n(C)c2=O)CCCC1` were, in that order, 4% and -0.51.
With `CN(C(=O)c1cnn(-c2ccc(Cl)cc2Cl)c1C1CC1)C1CC1`, the “% Inhibition” value is recorded as -14% and the Z score was determined as 1.77.
The like results for `CCOC(=O)C1CCN(c2c(C#N)c(=O)n(C)c(=O)n2C)CC1` were, in that order, -10% and 1.86.
As for `CCN(CC(=O)Nc1ccc2c(c1)OCCO2)S(=O)(=O)c1cnc2ccccc2c1`, the “% Inhibition” value is on record as -1% and the Z score is on record as 0.1.
As for `CCOc1ccc(-c2nnn(CN3CCC(C(=O)Nc4ccc(Br)cn4)CC3)n2)cc1`, the “% Inhibition” value is reported as -3% and the Z score was determined as 0.6.
With `O=C(NC1CCN(C(=O)C2C3CCCCC32)CC1)c1ccoc1` (stereo unspecified), the “% Inhibition” value amounted to 4% and the Z score was -0.8.
For the compound `Cc1csc([C@H](C)N(C)C(=O)c2cnc(-c3csc(C)n3)nc2O)n1`, the “% Inhibition” value is given as -4% and the Z score is listed as 0.77.
Turning to `C=CCOc1ccccc1[C@H]1CC(=O)NCc2nc3cc(C)ccn3c21`, the “% Inhibition” value is listed as -3% and the Z score came to 0.48.
In the case of `CCc1nc(C)sc1C(=O)N[C@@H]1C[C@H]2OCC[C@@H]12`, the “% Inhibition” value is -4% and the Z score amounted to 0.89.
In the case of `COc1nc(Oc2ccc(C(=O)Nc3ccccc3)cc2)nc(Oc2ccc(C(=O)Nc3ccccc3)cc2)n1`, the “% Inhibition” value is recorded as -14% and the Z score amounted to 1.7.
`O=C(NCCc1cc(F)c(F)c(F)c1)N1CC(=O)N(C2CC2)C1`: the “% Inhibition” value was -2% and the Z score came out at 0.43.
Turning to `CC(=O)Nc1cccc(NC(=O)CN2CC[C@@H](OC(C)C)C2)c1`, the “% Inhibition” value was 12% and the Z score is recorded as -1.53.
The like results for `Cc1oc(-c2ccccc2)nc1CNC(=O)Nc1ccccc1` were, in that order, 2% and -0.31.
The like results for `Cc1ccc(CNC(=O)N2CCC[C@H](CN3CCC(C)CC3)CC2)cc1` were, in that order, 0% and 0.
The like results for `COc1ccc(C)cc1NC(=O)Cn1c(=O)n(C(C)C)c(=O)c2sc(N3CCCCC3)nc21` were, in that order, -22% and 1.96.
On to `O=C1C2N=NN(Cc3nc(-c4ccc(Cl)cc4)no3)C2C(=O)N1c1ccc2c(c1)CCC2` (stereo unspecified), for which the “% Inhibition” value is on record as 5% and the Z score is on record as -0.59.
For `Cc1nc(C)c(Cc2ccc(Cl)cc2)c(N2CCN(S(=O)(=O)c3ccccc3)CC2)n1`, the “% Inhibition” value is reported as -8% and the Z score amounted to 0.93.
The like results for `O=C(NC1CCCCC1)C1=NN(c2ccccc2)C(=O)CC1` were, in that order, -4% and 0.56.
On to `CC1(C)NC(=O)N(CCOC(=O)c2cc3c(cc2O)CCCC3)C1=O`, for which the “% Inhibition” value is recorded as 2% and the Z score is recorded as -0.17.
For `CN(C(=O)Cc1cnn(C)c1)c1cc(Cl)cc(Cl)c1`, the “% Inhibition” value worked out at 15% and the Z score was -1.83.
The like results for `COc1ccc(C(=O)c2oc3ccccc3c2NC(=O)c2csnn2)cc1Cl` were, in that order, -18% and 1.56.
Consider `CCn1nc(C)c(-c2cccc(C(=O)N3CCC[C@@]4(CCNC4)C3)c2)c1C`, for which the “% Inhibition” value was found to be 0% and the Z score was -0.02.
`CCn1nnnc1-c1ccc(OC)c(S(=O)(=O)N[C@H]2CCS(=O)(=O)C2)c1`: the “% Inhibition” value is reported as -3% and the Z score is 0.49.
On to `CCCNC(=O)C1(NC(=O)C[C@@](O)(c2ccccc2)C2CC2)CCCCC1`, for which the “% Inhibition” value is recorded as 33% and the Z score is given as -3.73.
As to `Cc1ccccc1N1CCN(c2ncccc2CNCc2ccc(CO)o2)CC1`, the “% Inhibition” value stood at 0% and the Z score is reported as -0.03.
`COc1ncc(C(=O)N2CCCC2)cn1`: the “% Inhibition” value is given as -2% and the Z score is on record as 0.22.
Take `Cc1ccc(C(=O)N2C[C@@H]3CN(C(=O)C4CCCC4)C[C@]3(C(=O)O)C2)s1`: the “% Inhibition” value is recorded as -10% and the Z score amounted to 1.64.
As for `O=C([C@@H]1CCCN1C(=O)c1ccco1)N1CCCCCCC1`, the “% Inhibition” value is 28% and the Z score is on record as -3.21.
For the compound `Cn1ccc(NC(=O)C(=O)N(Cc2ccccc2)C2CC2)n1`, the “% Inhibition” value is reported as -3% and the Z score stood at 0.46.
Consider `CCc1ccc(CN2C[C@H]3CCCc4nnc(-c5ccc(F)cc5)n4[C@H]3C2)cc1`, for which the “% Inhibition” value is -9% and the Z score came out at 1.04.
On to `CN(C)c1nc(N2CCC3(CCNC(=O)CC3)CC2)ncc1F`, for which the “% Inhibition” value is -3% and the Z score was 0.41.
As for `C[C@H](NC(=O)Cc1n[nH]c(=O)c2cc(-c3ccccc3)nn12)c1ccccc1`, the “% Inhibition” value is -6% and the Z score was determined as 0.74.
`O=c1[nH]c2c(c(=O)[nH]1)CCN(Cc1ccccc1)C2`: the “% Inhibition” value was determined as 1% and the Z score is -0.12.
In the case of `O=C(CNC(=O)c1cnccn1)NC1CCCCCCC1`, the “% Inhibition” value came out at 8% and the Z score is -1.41.
The like results for `Cc1ccc2c(c1)CCCN2C(=O)CN1C(=O)c2ccccc2C1=O` were, in that order, -21% and 3.43.
Consider `COc1nn(C)cc1C(=O)N1CC2CC1C(=O)O2` (stereo unspecified), for which the “% Inhibition” value was -15% and the Z score is reported as 2.77.
For the compound `O=C(CN1N=C(c2ccccc2F)c2cc(Cl)ccc2S1(=O)=O)Nc1ccc2c(c1)OCO2`, the “% Inhibition” value is -25% and the Z score turned out to be 2.31.
As for `O=C(CCc1ccncn1)N1CC=C(c2cccc3ccccc23)C1`, the “% Inhibition” value is recorded as -15% and the Z score was determined as 1.81.
Regarding `CC1CC(C(=O)Nc2ccc([C@H]3C[C@@H]3C(=O)O)cc2)CCO1` (stereo partly specified), the “% Inhibition” value is given as -10% and the Z score was found to be 1.9.
With `CC(C)CC(=O)Nc1nc(C(=O)NC(C)C)cs1`, the “% Inhibition” value is listed as -2% and the Z score came to 0.26.
With `COc1nccnc1N[C@H]1C[C@@H](c2cc(N3CC[C@H](O)C3)ncn2)C1`, the “% Inhibition” value is listed as -16% and the Z score is listed as 1.96.
The like results for `NS(=O)(=O)CCNC(=O)NCC1(C2CC2)CCC1` were, in that order, -13% and 1.83.
On to `C[C@H]1Cc2ccccc2N1C(=O)C1CCN(c2cc(-n3cncn3)ncn2)CC1`, for which the “% Inhibition” value is 16% and the Z score is on record as -2.04.
Consider `O=c1ccc(-c2cc(F)cc3cccnc23)c[nH]1`, for which the “% Inhibition” value is given as -14% and the Z score was 1.52.
As to `O=C(C1CCOCC1)N1CC(n2nccn2)C1`, the “% Inhibition” value worked out at 17% and the Z score is listed as -1.96.
The like results for `Cn1ncc(NC(=O)C(F)(F)C2(O)CCC2)c1C(F)(F)F` were, in that order, -6% and 0.74.
For `COc1cc(C)ccc1NC(=O)N(CCO)C(C)C`, the “% Inhibition” value is -5% and the Z score amounted to 0.77.
Regarding `CCCCn1c(=O)[nH]c2c(C(=O)N3CCCC3)snc2c1=O`, the “% Inhibition” value is -12% and the Z score turned out to be 1.99.
On to `COc1ccc(NC(=O)Cn2cc(S(=O)(=O)c3ccc(C)cc3C)c(=O)c3ccc(C)nc32)cc1Cl`, for which the “% Inhibition” value is listed as -14% and the Z score came out at 1.42.
